According to article PMC4336329 (PLoS ONE, 2015):
Hit rate of the full screen: of about 310,000 compounds, about 14,000 (4.5%) showed an effect of 50% or more. Effects have a minus sign here. Some of the results follow.

Target: human ether-à-go-go-related gene (hERG) potassium channel (human, UniProt Q12809)
Assay: primary screen, population patch clamp on CHO cells stably expressing hERG
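Further: peak tail current of the secondary pulse compared with the same well before compound.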

human ether-à-go-go-related gene (hERG) potassium channel, sequence (Q12809 whole entry, looked up): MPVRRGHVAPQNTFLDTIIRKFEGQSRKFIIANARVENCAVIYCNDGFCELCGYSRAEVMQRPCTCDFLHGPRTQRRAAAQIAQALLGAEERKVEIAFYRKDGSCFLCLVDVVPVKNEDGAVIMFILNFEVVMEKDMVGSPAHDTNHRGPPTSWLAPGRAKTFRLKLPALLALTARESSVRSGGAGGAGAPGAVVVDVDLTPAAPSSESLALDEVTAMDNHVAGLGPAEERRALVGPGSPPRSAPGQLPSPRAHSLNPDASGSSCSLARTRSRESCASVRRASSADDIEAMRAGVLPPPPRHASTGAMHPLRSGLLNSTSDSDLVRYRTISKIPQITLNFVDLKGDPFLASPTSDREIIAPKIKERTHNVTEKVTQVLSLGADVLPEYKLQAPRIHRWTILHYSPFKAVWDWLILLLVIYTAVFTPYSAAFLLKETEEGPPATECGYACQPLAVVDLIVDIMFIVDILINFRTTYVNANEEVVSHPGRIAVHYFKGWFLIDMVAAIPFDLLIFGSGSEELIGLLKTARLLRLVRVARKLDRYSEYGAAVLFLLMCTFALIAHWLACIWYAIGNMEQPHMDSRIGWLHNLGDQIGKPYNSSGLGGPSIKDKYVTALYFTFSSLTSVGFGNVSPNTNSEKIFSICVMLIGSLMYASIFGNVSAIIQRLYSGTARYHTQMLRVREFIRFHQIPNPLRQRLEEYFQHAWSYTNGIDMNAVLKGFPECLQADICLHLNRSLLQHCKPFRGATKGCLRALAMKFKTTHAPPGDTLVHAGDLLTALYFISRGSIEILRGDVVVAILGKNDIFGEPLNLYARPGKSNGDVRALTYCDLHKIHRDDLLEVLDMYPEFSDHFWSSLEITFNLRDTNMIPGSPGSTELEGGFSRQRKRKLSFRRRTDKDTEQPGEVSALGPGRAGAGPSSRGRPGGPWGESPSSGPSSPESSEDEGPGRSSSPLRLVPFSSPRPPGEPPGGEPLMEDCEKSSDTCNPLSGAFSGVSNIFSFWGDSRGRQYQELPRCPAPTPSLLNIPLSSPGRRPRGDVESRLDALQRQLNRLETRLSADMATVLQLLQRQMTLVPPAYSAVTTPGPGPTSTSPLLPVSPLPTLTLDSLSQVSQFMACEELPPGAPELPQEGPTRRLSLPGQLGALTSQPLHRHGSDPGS

| SMILES | hERG current change (%, negative = inhibition) at 10uM [%] |
| --- | --- |
| CNC(=S)N1CCN(c2ccccn2)CC1 | -9.16 |
| Cc1cc(S(=O)(=O)N(Cc2ccc3c(c2)OCO3)CC2CCCO2)ccc1-n1cnnn1 (stereo not drawn) | -21.9 |
| Cc1ccc(S(=O)(=O)c2nc(S(C)(=O)=O)sc2N2CCOCC2)cc1 | -4.32 |
| O=C(Cn1nc(-c2ccccc2)ccc1=O)Nc1cccc(NC(=O)c2ccccn2)c1 | -0.657 |
| COc1ccccc1C(=O)COC(=O)/C(=C/c1ccccc1)NC(C)=O | 2.19 |
| CC(NC(=O)C1CCN(S(=O)(=O)N2CCCCCC2)CC1)c1ccccc1 (stereo not drawn) | -13 |
| C=CCN=C(NC#N)SCC(=O)NCc1ccccc1 | 8.47 |
| CCOc1cccc(C2/C(=C(/O)c3ccc4c(c3)CC(C)O4)C(=O)C(=O)N2CCCn2ccnc2)c1 (stereo not drawn) | 24.6 |
| O=C(COc1ccccc1Cl)Nc1ccc(S(=O)(=O)N2CCOCC2)cc1 | 15.4 |
| CC(=O)Nc1sc(C)c(C)c1C(=O)OCC(=O)N(CC(C)C)C1CCS(=O)(=O)C1 (stereo not drawn) | -16.3 |
| O=C(NCc1ccccc1)C(c1ccco1)N(C(=O)c1cnccn1)c1ccc(F)cc1 (stereo not drawn) | 10.5 |
| CC(CCc1ccccc1)NC(=O)CSc1nnnn1C (stereo not drawn) | 1.89 |
| COc1ccc(CC(=O)NCCc2ccc(OC)c(OC)c2)cc1 | 10.4 |
| COc1cccc(N(CC(=O)Nc2ccc3c(c2)OCO3)S(=O)(=O)c2ccccc2)c1 | 8.29 |
| COc1ccc(OC2C(=O)N(c3ccc(F)cc3)C2c2ccc(OC)c(OC)c2)cc1 (stereo not drawn) | 1.64 |
| Clc1ccc(-c2nc3ccccn3c2CN2CCCCC2)cc1 | -19.9 |
| CC(=O)Oc1ccccc1C(=O)O | 3.63 |
| Cc1ncc(C[n+]2csc(CCO)c2C)c(N)n1.[Cl-] | 15.4 |
| Cc1ccc(NC(=O)Cn2nnc(C(=O)Nc3ccc(F)c(Cl)c3)c2N)cc1 | 6.89 |
| O=C(c1ccco1)N1CCN(Cc2nnc(-c3cccc(Br)c3)o2)CC1 | -62.2 |
| CCN(CC(=O)Nc1ccccc1OC)C(=O)C1CCCC1 | 0.547 |
| CN(C)C(Cc1ccc(C#N)cc1)C(=O)c1ccccc1 (stereo not drawn) | -6.72 |
| O=C(O)/C(=C/c1ccco1)NC(=O)c1ccc(Br)o1 | 11.9 |

| SMILES | hERG current change (%, negative = inhibition) at 10uM [%] |
| --- | --- |
| COc1cccc(Nc2ncccc2C(=O)Nc2ccccc2)c1 | -15.7 |
| O=C(CSc1nnnn1C1CC2C=CC1C2)Nc1ccc(C(=O)O)cc1 (stereo not drawn) | -6.04 |
| O=C(/C=C/c1ccccc1Cl)Nc1ccc2c(c1)C(=O)NC2=O | 17.7 |
| CC1CC(C)(C)NC(=S)N1CCCC(=O)N1CCN(c2ccccc2F)CC1 (stereo not drawn) | -4.98 |
| COc1ccc(CNC(=O)CN(c2cccc(OC)c2)S(C)(=O)=O)cc1 | 2.47 |
| Cc1ccc(NC(=O)C2CCN(C(=O)NC3CCCCC3)CC2)cc1Cl | 17 |
| Cc1cc(=O)[nH]c(SCC(=O)Nc2nnc(CC(C)C)s2)n1 | 10.9 |
| Cc1ccnc(NC(=O)/C=C/c2cccs2)c1 | 1.27 |
| Cc1onc(-c2ccccc2Cl)c1C(=O)OCC(=O)N1CCCc2ccccc21 | 7.75 |
| CCn1cc(C(C)NC(=O)Nc2ccc3c(c2)OCO3)c(C)n1 (stereo not drawn) | 61.5 |
| CCC(C)(C)NC(=O)C(c1cccc(OC)c1OC)N(CCC(C)C)C(=O)CCC(=O)Nc1cc(C)on1 (stereo not drawn) | 11.6 |
| COc1ccc(NC(=O)c2c[nH]c(=O)n(-c3ccc(C)c(C)c3)c2=O)cc1OC | 9.17 |
| CCCNC(C)C(=O)Nc1c(C)csc1C(=O)OC.Cl (stereo not drawn) | -4.01 |
| CC1=Nn2c(nc3sc4c(c3c2=O)CCCC4)SC1 | -24.5 |
| Cc1ccc(N2C(=O)CC(Cc3cc(C)cc(C)c3)C2=O)cc1 (stereo not drawn) | 6.47 |
| CCN(CC)S(=O)(=O)C1CCS(=O)(=O)C1 (stereo not drawn) | 8.51 |
| CC1(C)Cc2nc(-c3ccccc3)nc(NNC(=O)c3ccco3)c2CO1 | 18.2 |
| CC(=O)N1CCc2cc(NC(=O)c3ccc(C)cc3)ccc21 | 13.1 |
| CCN(CC)S(=O)(=O)c1ccc(Nc2cc(C)nc3ncnn23)cc1 | -26.9 |
| CCCCN(C(=O)COC(=O)CSc1cc(C)c2ccccc2n1)c1c(N)n(CCC)c(=O)[nH]c1=O | 3.06 |
| CCn1c(CNc2ccccc2Cl)nnc1SCC(=O)OC1CCCCC1 | -21 |
| CC(=O)Nc1ccc(S(=O)(=O)NCCC(=O)N2CCCCC2)cc1 | 16.1 |
| CC(OC(=O)c1ccc(CN2CCCC2=O)cc1)C(=O)Nc1ccc(Cl)cc1 (stereo not drawn) | -8.49 |

| SMILES | hERG current change (%, negative = inhibition) at 10uM [%] |
| --- | --- |
| CCCCc1nc2cc(Cl)ccc2o1 | 10.2 |
| C=C[C@]1(C)C[C@H]1[C@H](NP(=O)(c1ccccc1)c1ccccc1)c1ccccc1 | 27.9 |
| CN(C)CCN(Cc1ccccc1)c1ccccn1.Cl | -48.6 |
| O=C(c1ccc(CSc2ccccc2)cc1)N1CCCCCC1 | -8.84 |
| O=c1c2ccccc2c(-c2ccccc2)nn1Cc1c(Cl)cccc1Cl | -0.451 |
| O=C(O)CSc1nnc(-c2cccs2)n1-c1ccc(Cl)cc1 | -6.94 |
| CC(=O)Nc1ccc(-n2cnnn2)cc1 | 8.43 |
| CN(C)C(=O)N1CCCC(C(=O)NCc2ccc(F)cc2Cl)C1 (stereo not drawn) | 7.68 |
| Cc1csc(SCC(=O)c2c(N)n(C)c(=O)n(C)c2=O)n1 | 11.2 |
| Nc1nnc(SCC(=O)NCCNC(=O)CSc2nnc(N)s2)s1 | 11.3 |
| Cc1cc(C)cc(NC(=O)COC(=O)[C@@H](NC(=O)c2ccco2)C(C)C)c1 | -17.1 |
| C/C(=N\NC(=O)c1cccc(F)c1)c1ccc(Br)s1 | 26.4 |
| CN(CC(=O)Nc1ccccc1)CC(=O)Nc1ccc(F)cc1 | 24.1 |
| CCC(=O)Nc1c2c(nn1-c1cccc(Cl)c1)CSC2 | -13.6 |
| CC(OC(=O)Cn1[nH]c(=O)c2ccccc2c1=O)C(=O)c1ccccc1 (stereo not drawn) | 13.8 |
| CSc1ccccc1OCc1cc(C(=O)N2CCC(c3ccncc3)CC2)no1 | -58.5 |
| Fc1ccc(OCc2nc(-c3ccncc3)n[nH]2)cc1 | 5.74 |
| Cc1ccc(NCC(=O)N/N=C/c2cc3ccccc3nc2Cl)cc1 | -6.21 |
| CN1C(=O)N(C)C2(c3ccccc3)NNC(N)=NC12c1ccccc1.Cl (stereo not drawn) | 2.59 |
| O=C(Nc1nc(-c2ccccn2)cs1)C12CC3CC(CC(O)(C3)C1)C2 | 16.7 |
| Cc1cccc(C(CC(=O)O)n2cccc2)c1 (stereo not drawn) | 8.11 |
| COC(=O)c1ccc(-c2csc(NC(=O)C3=COCCO3)n2)cc1 | 10.6 |
| O=C(NC(Cc1ccccc1)C(=O)O)/C(=C/c1ccc([N+](=O)[O-])cc1)NC(=O)c1ccccc1 (stereo not drawn) | 11.1 |

| SMILES | hERG current change (%, negative = inhibition) at 10uM [%] |
| --- | --- |
| COc1ccc(C2C3=C(CC(C)(C)CC3=O)N(CC(=O)O)C3=C2C(=O)CC(C)(C)C3)cc1OC | 2.83 |
| Cc1cccc(N=C2NC(=O)/C(=C/c3cn(C)c4ccccc34)S2)c1 | 22.5 |
| [N-]=[N+]=NC[C@H](Cc1ccccc1)N1CC[C@@H](OCc2ccccc2)CCC1=O | -13.3 |
| O=C(NCCc1c[nH]c2ccccc12)C(=O)NCC(c1ccco1)N1CCN(c2ccccc2F)CC1 (stereo not drawn) | -0.657 |
| CCc1nn(CC(=O)N2CCN(C)CC2)c(=O)c2cccn12 | -10.5 |
| COC(=O)c1ccc(CN2CCC(CO)(CCOc3ccccc3)CC2)cc1 | -80.1 |
| CCNc1nc(C)cc(COC)c1C#N | -0.846 |
| CCCn1c(SCCC(=O)O)nc2ccccc21 | 8.62 |
| CCOc1ccc2oc(C(=O)OCC(=O)NC(=O)NC3CCCC3)c(C)c2c1 | -4.99 |
| COc1cc(/C=N/n2nnnc2Nc2ccccc2)cc(OC)c1OC | -19.9 |
| CCc1cccc(C)c1NS(=O)(=O)c1cc(Br)cnc1N | 8.34 |
| CC(=O)NC1=NN(C(C)=O)C2(CCCC2)S1 | 13.4 |
| Cc1ccc(S(=O)(=O)N2CCCCC2C(=O)N2CCN(Cc3ccccc3)CC2)cc1.Cl (stereo not drawn) | -42.5 |
| COc1ccc(NC(=O)CN2CCN(S(=O)(=O)c3ccc(Cl)cc3)CC2)cc1 | -79.7 |
| COc1ccc(CNC(=O)CCCn2nc([N+](=O)[O-])cc2C)cc1 | -12.9 |
| COc1cc(CN(C)Cc2nc3cc(C(F)(F)F)ccc3c(=O)[nH]2)ccc1OC(F)F | -66.5 |
| CN1CCN(C(=O)CN(C)S(=O)(=O)c2ccc3ccccc3c2)CC1 | 3.1 |
| COc1ccccc1CN(C)C(=O)c1ccc(S(=O)(=O)NCc2ccco2)cc1 | -14.9 |
| CSc1ccccc1OCc1cc(C(=O)NCCC2=CCCCC2)no1 | -0.22 |
| COc1ccc(-n2c(N)cc(=O)[nH]c2=O)cc1 | 8.55 |
| Cc1cccc(N(C(=O)Cc2cccs2)C(C(=O)NCc2ccco2)c2ccncc2)c1 (stereo not drawn) | -8.62 |
